Some of the results follow.
The compounds below were run on S. aureus RN4220 (assay: growth inhibition call (relative growth <= 0.2)). Conditions: 50 µM.

Growth inhibition call, inactive:
C[C@@H]1CN([C@H](C)CO)C(=O)c2cc(NC(=O)CCN3CCOCC3)ccc2O[C@H]1CN(C)S(=O)(=O)c1ccccc1
COCC#Cc1cnc2c(c1)C(=O)N([C@H](C)CO)C[C@@H](C)[C@@H](CN(C)C(C)=O)O2
CC(C)(C)[S@](=O)N1Cc2cc(C(=O)NCCc3ccncc3)nc(-c3cccc(-c4cccc(C#N)c4)c3)c2[C@@H]1CCO
Cc1noc(C)c1NC(=O)N(C)C[C@H]1Oc2c(NS(=O)(=O)c3ccccc3)cccc2C(=O)N([C@@H](C)CO)C[C@@H]1C
CN(C)C(=O)C[C@@H]1CC[C@H]2[C@@H](COc3ccc(NS(=O)(=O)c4cccc(F)c4)cc3C(=O)N2C)O1
C[C@H]1CN([C@@H](C)CO)C(=O)c2cccc(NC(=O)C3CC3)c2O[C@H]1CN(C)C(=O)Nc1ccc2c(c1)OCO2
C=c1nc(C)sc1=C1NN=C(N)O1
C[C@@H]1CCCCO[C@@H](CN(C)CC2CC2)[C@H](C)CN([C@@H](C)CO)C(=O)c2cc(NC(=O)c3ccccc3)ccc2O1
C[C@@H]1CCCCO[C@@H](CN(C)CC2CCCCC2)[C@@H](C)CN([C@@H](C)CO)C(=O)c2cc(NS(=O)(=O)c3ccccc3)ccc2O1
O=C(NCC(F)(F)F)c1cc2c(c(-c3cccc(-c4ccccc4F)c3)n1)[C@@H](CCO)N(C(=O)CC1CC1)C2
C[C@@H](NC(=O)C[C@@H]1C=C[C@H](NC(=O)CN2CCOCC2)[C@@H](CO)O1)c1ccccc1
C[C@H](CO)N1C[C@H](C)[C@H](CN(C)C(=O)c2ccccc2)OCCCC[C@H](C)Oc2ccc(NC(=O)Nc3ccc(C(F)(F)F)cc3)cc2C1=O
C[C@H](CO)N1C[C@H](C)[C@H](CN(C)S(=O)(=O)c2cn(C)cn2)Oc2ccc(NC(=O)CCC(F)(F)F)cc2CC1=O
CC(C)(O)C#Cc1ccc([C@H]2[C@@H](CO)N3CCCCN(S(C)(=O)=O)C[C@H]23)cc1
CC(C)NC(=O)N[C@@H]1CC[C@@H](CCN)O[C@H]1CO
CO[C@@H]1CN(C)C(=O)c2cc(NS(=O)(=O)CC(F)(F)F)ccc2OC[C@H](C)N(Cc2ccccn2)C[C@@H]1C
CCCCCCc1ccc(O)cc1O.Nc1c2ccccc2nc2ccccc12
CC(C)(C)c1nc(-c2cccc(NS(=O)(=O)c3c(F)cccc3F)c2F)c(-c2ccnc(N)n2)s1
C[C@@H]1COC(=O)N1
CCN1C(=O)CO[C@H]2CN(C(=O)C3CCOCC3)C[C@@H]21
O=C(CN1CCOCC1)NCC[C@H]1CC[C@@H](NS(=O)(=O)c2ccc(Cl)cc2)[C@H](CO)O1
CN1CCN(C(=O)C[C@@H]2C[C@H]3c4cc(NS(=O)(=O)c5ccc(F)cc5)ccc4O[C@H]3[C@@H](CO)O2)CC1
C[C@H](CO)N1C[C@H](C)[C@@H](CN(C)Cc2ccc(Cl)c(Cl)c2)Oc2ccc(NC(=O)NC3CCCCC3)cc2CC1=O
C[C@@H]1CN([C@@H](C)CO)C(=O)c2cc(NS(=O)(=O)c3ccccc3)ccc2O[C@@H](C)CCCCO[C@@H]1CN(C)C(=O)C1CCCCC1
C[C@@H]1CN([C@H](C)CO)C(=O)Cc2cc(NS(=O)(=O)c3cn(C)cn3)ccc2O[C@@H]1CN(C)S(=O)(=O)c1ccc(Cl)cc1
COc1ccc(NC(=O)N(C)C[C@H]2OCCCC[C@@H](C)Oc3ccc(NS(=O)(=O)c4c(C)noc4C)cc3C(=O)N([C@H](C)CO)C[C@@H]2C)cc1
Cc1noc(C)c1S(=O)(=O)N(C)C[C@@H]1Oc2c(NS(=O)(=O)c3cccs3)cccc2C(=O)N([C@H](C)CO)C[C@@H]1C
C[C@H]1CCCCO[C@@H](CN(C)S(=O)(=O)c2cn(C)cn2)[C@@H](C)CN([C@@H](C)CO)C(=O)c2cc(NS(=O)(=O)c3cccs3)ccc2O1
C[C@@H]1CN([C@@H](C)CO)S(=O)(=O)c2ccc(C3=CCCC3)cc2O[C@@H]1CN(C)S(=O)(=O)c1cn(C)cn1
Cc1ccc(-n2cnc3cc(NCc4cccs4)ccc32)cc1
C[C@@H]1CN([C@H](C)CO)C(=O)c2cc(NC(=O)Nc3cccc4ccccc34)ccc2O[C@@H](C)CCCCO[C@H]1CN(C)Cc1ccc(C(=O)O)cc1
C[C@H](CO)N1C[C@H](C)[C@H](CN(C)Cc2ccc(Cl)c(Cl)c2)Oc2ccc(NC(=O)Nc3ccc4c(c3)OCO4)cc2C1=O
CN(C)CCCNC(=O)C[C@H]1CC[C@H]2[C@@H](COC[C@@H](O)CN2C(=O)c2cc(Cl)cc(Cl)c2)O1
COCCNC(=O)C[C@H]1CC[C@H](NS(=O)(=O)c2ccc(C)cc2)[C@@H](CO)O1
Cc1ccc(S(=O)(=O)Nc2ccc3c(c2)CC(=O)N([C@@H](C)CO)C[C@H](C)[C@@H](CN(C)CC2CC2)O3)cc1
C[C@@H]1CCCCO[C@H](CN(C)C(=O)c2ccccc2)[C@@H](C)CN([C@H](C)CO)C(=O)c2cc(NC(=O)Nc3ccc(C(F)(F)F)cc3)ccc2O1
CC1CCN(C(=O)N2c3ccccc3Sc3ccccc32)CC1
Cc1noc(C)c1NC(=O)Nc1ccc2c(c1)C(=O)N([C@@H](C)CO)C[C@H](C)[C@H](CN(C)C(=O)NC1CCCCC1)OCCCC[C@@H](C)O2
OCc1c[nH]c2ccccc12
Cn1cnnc1Sc1c([N+](=O)[O-])ncn1C

From the antibiotic and cytotoxicity screens of Wong et al. (2023)
